Source: the supplement of paper PMC12067230
The data scatter; read single values as rough.

test: amyloid nucleation score relative to library mode (yeast Sup35 reporter selection) (log enrichment difference); higher = more amyloid nucleation; sequences are the first 22 residues of the Bri2 peptide extended by up to 12 random residues; details: random library (experiment): 1;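 active = nucleation score significantly above 0 at FDR 0.05; inactive = not significantly above 0 or absent from output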
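Also: [psi-pin-] Saccharomyces cerevisiae expressing SupN fusions, induced by 100 µM Cu2SO4, selected 7 d at 30 °C without adenine and uracil, scored by deep sequencing of output versus input.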

| Sequence | amyloid nucleation score |
| --- | --- |
| EASNCFAIRHFENKFAVETLICTEVAVLTLVGVS | -0.146 |
| EASNCFAIRHFENKFAVETLICTEVSWVMLNVCE | inactive |
| EASNCFAIRHFENKFAVETLICTEWQAGPPAMVW | -0.195 |
| EASNCFAIRHFENKFAVETLICTEWTCRLTKILD | 0.376 |
| EASNCFAIRHFENKFAVETLICTF | inactive |
| EASNCFAIRHFENKFAVETLICTFALVND | inactive |
| EASNCFAIRHFENKFAVETLICTFG | inactive |
| EASNCFAIRHFENKFAVETLICTFIGLRNWVDCS | inactive |
| EASNCFAIRHFENKFAVETLICTFKWRCNSVVG | inactive |
| EASNCFAIRHFENKFAVETLICTFLRS | inactive |
| EASNCFAIRHFENKFAVETLICTFQVSGWSII | 1.61 |
| EASNCFAIRHFENKFAVETLICTFR | inactive |
| EASNCFAIRHFENKFAVETLICTFRGGSKQSRIA | inactive |
| EASNCFAIRHFENKFAVETLICTFRSDRVGRQGD | 0.451 |
| EASNCFAIRHFENKFAVETLICTFSFDLKDYARH | 2.37 |
| EASNCFAIRHFENKFAVETLICTFVSCVKLLGQG | inactive |
| EASNCFAIRHFENKFAVETLICTFWESTTFVGVT | inactive |
| EASNCFAIRHFENKFAVETLICTFYGYWYSEFTC | inactive |
| EASNCFAIRHFENKFAVETLICTFYL | 8.54 |
| EASNCFAIRHFENKFAVETLICTG | inactive |
| EASNCFAIRHFENKFAVETLICTGCPNRCENGPT | inactive |
| EASNCFAIRHFENKFAVETLICTGEGPRVHGFLW | inactive |
| EASNCFAIRHFENKFAVETLICTGERRKWRAITG | inactive |
| EASNCFAIRHFENKFAVETLICTGGLHGELRSRE | inactive |
| EASNCFAIRHFENKFAVETLICTGIAP | inactive |

| Sequence | amyloid nucleation score |
| --- | --- |
| EASNCFAIRHFENKFAVETLICTGIVGSLVYFDA | 5.17 |
| EASNCFAIRHFENKFAVETLICTGKARFHTVVPG | -0.331 |
| EASNCFAIRHFENKFAVETLICTGLGAW | 5.05 |
| EASNCFAIRHFENKFAVETLICTGM | inactive |
| EASNCFAIRHFENKFAVETLICTGMIVMG | 3.47 |
| EASNCFAIRHFENKFAVETLICTGPEYVM | inactive |
| EASNCFAIRHFENKFAVETLICTGPGERAWGTLF | 0.384 |
| EASNCFAIRHFENKFAVETLICTGPMVFRGMFLP | 7.09 |
| EASNCFAIRHFENKFAVETLICTGRGDPELVEAC | inactive |
| EASNCFAIRHFENKFAVETLICTGRMGDRRSAVR | inactive |
| EASNCFAIRHFENKFAVETLICTGTLSRSRQPGR | -0.546 |
| EASNCFAIRHFENKFAVETLICTGVIL | 4.39 |
| EASNCFAIRHFENKFAVETLICTGVRRQPAWQVG | inactive |
| EASNCFAIRHFENKFAVETLICTGVRWAWWGRHG | -0.717 |
| EASNCFAIRHFENKFAVETLICTH | inactive |
| EASNCFAIRHFENKFAVETLICTHLLFRS | 2.43 |
| EASNCFAIRHFENKFAVETLICTHMRPRSLGTLL | inactive |
| EASNCFAIRHFENKFAVETLICTHQLQCFRNFTG | inactive |
| EASNCFAIRHFENKFAVETLICTIARALTEACLR | inactive |
| EASNCFAIRHFENKFAVETLICTIETC | inactive |
| EASNCFAIRHFENKFAVETLICTIFPKGDCGVWG | 5.2 |
| EASNCFAIRHFENKFAVETLICTIFTTSRRCLPY | 0.761 |
| EASNCFAIRHFENKFAVETLICTIGFAGPGACMS | 5.1 |
| EASNCFAIRHFENKFAVETLICTIHCCQLEGSGN | 8.7 |
| EASNCFAIRHFENKFAVETLICTINEVQIGDCLR | 8.46 |

same assay, conditions: random library (experiment): 2

| Sequence | amyloid nucleation score |
| --- | --- |
| EASNCFAIRHFENKFAVETLICTFACPRW | 4.91 |
| EASNCFAIRHFENKFAVETLICTFAFLCV | inactive |
| EASNCFAIRHFENKFAVETLICTFDFLMSCIVFW | inactive |
| EASNCFAIRHFENKFAVETLICTFERCEFRSNTG | 4.63 |
| EASNCFAIRHFENKFAVETLICTFFNYQYVLLGC | inactive |
| EASNCFAIRHFENKFAVETLICTFGLSTMFSTSF | inactive |
| EASNCFAIRHFENKFAVETLICTFHRSISDRLVW | inactive |
| EASNCFAIRHFENKFAVETLICTFLGFDVPGECR | inactive |
| EASNCFAIRHFENKFAVETLICTFLMFN | 1.08 |
| EASNCFAIRHFENKFAVETLICTFLNGVDLRSPD | 7.03 |
| EASNCFAIRHFENKFAVETLICTFLY | 2.45 |
| EASNCFAIRHFENKFAVETLICTFNK | 6.44 |
| EASNCFAIRHFENKFAVETLICTFQGIVLWYWM | inactive |
| EASNCFAIRHFENKFAVETLICTFRYTFV | inactive |
| EASNCFAIRHFENKFAVETLICTFSSIFFNSLLV | 6.26 |
| EASNCFAIRHFENKFAVETLICTFTKNKFSNHWM | 3.4 |
| EASNCFAIRHFENKFAVETLICTFTYSTVDYTNI | 3.23 |

| Sequence | amyloid nucleation score |
| --- | --- |
| EASNCFAIRHFENKFAVETLICTFWKGYIPCDWS | inactive |
| EASNCFAIRHFENKFAVETLICTFWNPYFSDGHL | inactive |
| EASNCFAIRHFENKFAVETLICTGCSVCHRVLLV | -0.113 |
| EASNCFAIRHFENKFAVETLICTGDVRVDSSRDY | 4.69 |
| EASNCFAIRHFENKFAVETLICTGNG | inactive |
| EASNCFAIRHFENKFAVETLICTGRYYVWRGYSS | inactive |
| EASNCFAIRHFENKFAVETLICTGSHVTSPHASH | -0.122 |
| EASNCFAIRHFENKFAVETLICTGSQTNSCFYYT | 3.53 |
| EASNCFAIRHFENKFAVETLICTGYSVHGDTARV | inactive |
| EASNCFAIRHFENKFAVETLICTHKFVSEPGGTS | inactive |
| EASNCFAIRHFENKFAVETLICTHMPP | inactive |
| EASNCFAIRHFENKFAVETLICTHRTGSVVSRSR | inactive |
| EASNCFAIRHFENKFAVETLICTHSSILVPILKR | inactive |
| EASNCFAIRHFENKFAVETLICTHYKHRE | 2.2 |
| EASNCFAIRHFENKFAVETLICTIIDSWLQTWYV | inactive |
| EASNCFAIRHFENKFAVETLICTINFRHIDCPTL | 1.74 |

same assay, conditions: random library (experiment): 3

| Sequence | amyloid nucleation score |
| --- | --- |
| EASNCFAIRHFENKFAVETLICTESLDCCVMVPM | inactive |
| EASNCFAIRHFENKFAVETLICTEYRPSRGTLL | 1.11 |
| EASNCFAIRHFENKFAVETLICTFISCCYWADPA | 4.03 |
| EASNCFAIRHFENKFAVETLICTFIVKVTWFIWG | inactive |
| EASNCFAIRHFENKFAVETLICTFLDSESLLSCL | 3.23 |
| EASNCFAIRHFENKFAVETLICTFLV | 6.58 |
| EASNCFAIRHFENKFAVETLICTFSPSMKLDMWH | inactive |
| EASNCFAIRHFENKFAVETLICTFSSARWGLRKE | inactive |
| EASNCFAIRHFENKFAVETLICTFTMGQSSGVEP | 5.17 |
| EASNCFAIRHFENKFAVETLICTFVMKGYGSSGW | inactive |
| EASNCFAIRHFENKFAVETLICTFVMPFQWRFAS | 5.26 |
| EASNCFAIRHFENKFAVETLICTGAKSMEYKTRC | inactive |
| EASNCFAIRHFENKFAVETLICTGALFFIRNGVR | 6.8 |
| EASNCFAIRHFENKFAVETLICTGASRLCFGIPS | 6.51 |
| EASNCFAIRHFENKFAVETLICTGC | inactive |
| EASNCFAIRHFENKFAVETLICTGCVNWFITTSS | 8.7 |
| EASNCFAIRHFENKFAVETLICTGCWAIAQLVGK | inactive |
| EASNCFAIRHFENKFAVETLICTGDA | 3.93 |
| EASNCFAIRHFENKFAVETLICTGDVKRVTRFRA | inactive |

| Sequence | amyloid nucleation score |
| --- | --- |
| EASNCFAIRHFENKFAVETLICTGGWPLAPMPSR | inactive |
| EASNCFAIRHFENKFAVETLICTGI | inactive |
| EASNCFAIRHFENKFAVETLICTGLGLLRGEMEG | inactive |
| EASNCFAIRHFENKFAVETLICTGMGGVCGAVGG | 5.53 |
| EASNCFAIRHFENKFAVETLICTGMRIEPLWETL | inactive |
| EASNCFAIRHFENKFAVETLICTGS | inactive |
| EASNCFAIRHFENKFAVETLICTGSGRSRIGFVR | inactive |
| EASNCFAIRHFENKFAVETLICTGTLQKGMRNAT | inactive |
| EASNCFAIRHFENKFAVETLICTGYPMYRIDMVG | 5.5 |
| EASNCFAIRHFENKFAVETLICTHGASFMDWGKI | 5.03 |
| EASNCFAIRHFENKFAVETLICTHGEWRR | 3.11 |
| EASNCFAIRHFENKFAVETLICTHMVLLDQRLNM | inactive |
| EASNCFAIRHFENKFAVETLICTHTMSSRHTI | 3.83 |
| EASNCFAIRHFENKFAVETLICTHVGLYFRMTSP | inactive |
| EASNCFAIRHFENKFAVETLICTI | inactive |
| EASNCFAIRHFENKFAVETLICTICKVGRVNGDV | 2.96 |
| EASNCFAIRHFENKFAVETLICTIFVRLGLCVIA | inactive |
| EASNCFAIRHFENKFAVETLICTILSSFLSVNVS | 1.15 |
| EASNCFAIRHFENKFAVETLICTIMRLCMSYKHF | inactive |
